# Source: publication PMC10668032
# The list shows a part of the results. At the low end of the ranking the order means little.
# Biological target: SIX1 homeodomain (reference allele) (UniProt Q15475)
# Test: universal protein binding microarray
# Conditions: Universal all-10-mer PBM (8x60K, AMADID 030236), 300 nM GST-tagged protein, Alexa Fluor 488 anti-GST; buffer, salt, pH and temperature not stated; high values mean tight binding; most listed sequences are background and not binding sites; double strand, one strand shown
row,Sequence,binding signal
1,ACCGTTCC,-0.151 E-score
2,CATTCATC,-0.145 E-score
3,GCGGGCGA,-0.0854 E-score
4,GTGGGGGA,0.0152 E-score
5,GCCTATAC,0.0519 E-score
6,TATGGAAA,-0.0686 E-score
7,CCGACCTA,0.0995 E-score
8,AGGGTTGA,0.0587 E-score
9,AGATCAGA,0.215 E-score
10,CTAGAATA,0.125 E-score
11,AACCTCTT,-0.0825 E-score
12,CGATGTGA,0.0964 E-score
13,TGCTACCA,-0.128 E-score
14,AAAGTTGC,-0.218 E-score
15,ACGTAATC,-0.0574 E-score
16,ATCGGTCC,0.0975 E-score
17,ACGCGGGA,0.105 E-score
18,ACGTGAAG,-0.0195 E-score
19,AACCGTGA,-0.0427 E-score
20,AGCCAGGG,-0.0249 E-score
21,AGATAGAT,0.23 E-score
22,CAATTACA,-0.0413 E-score

row,Sequence,binding signal
1,GACTTGAA,-0.238 E-score
2,AGCTCCAT,-0.0632 E-score
3,ACGACAGG,-0.0819 E-score
4,ATCATATG,0.281 E-score
5,AGTGTTCA,-0.198 E-score
6,ATAAGGCC,-0.133 E-score
7,GAGAGAAA,-0.34 E-score
8,CGGCATAC,0.0306 E-score
9,GACCCCCC,-0.0123 E-score
10,AGTGATAG,0.32 E-score
11,GCCGTACC,0.0248 E-score
12,TAGGCGCA,0.0473 E-score
13,AAACAAAA,-0.336 E-score
14,GCTGCAGA,-0.021 E-score
15,CGATATAA,0.243 E-score
16,TAAGATGA,0.0389 E-score
17,TCTCAACA,0.0997 E-score
18,ACGGTCTC,0.0782 E-score
19,GCGGAAGC,-0.0462 E-score
20,GCCCGAGC,-0.183 E-score
21,GCAGCGAA,-0.363 E-score
22,TAGCCAGA,0.0575 E-score

row,Sequence,binding signal
1,GCGGTCGA,-0.126 E-score
2,TGCATACA,0.0548 E-score
3,CATCCCTA,0.146 E-score
4,CTCCATAC,0.114 E-score
5,ATATTCAT,0.0532 E-score
6,GAATCAAA,-0.108 E-score
7,AACACGGT,0.0514 E-score
8,CGGTCGGC,-0.159 E-score
9,CACGTCGC,-0.359 E-score
10,GTCTTACA,-0.0713 E-score
11,AGACCGAA,-0.0523 E-score
12,AACTGACT,-0.293 E-score
13,GAGTTAAA,-0.22 E-score
14,AAACGAGC,-0.0932 E-score
15,CGTCTTAC,0.0461 E-score
16,AATCGACC,-0.0876 E-score
17,AGGGTGGC,0.0536 E-score
18,TCTCCGAA,0.0408 E-score
19,CAGTTATC,0.176 E-score
20,ACCGGGAC,-0.23 E-score
21,GTTGGGCA,-0.145 E-score
22,CGTCTACA,-0.0416 E-score

row,Sequence,binding signal
1,CATTGTGA,0.107 E-score
2,GAGGGGGA,0.0181 E-score
3,GAACAGTA,-0.0144 E-score
4,ACTGGACA,-0.0329 E-score
5,GAACTGGA,0.0561 E-score
6,AGTACAAT,-0.0504 E-score
7,AACGTAAT,-0.24 E-score
8,CGATTTGA,-0.114 E-score
9,ATGATACA,0.449 E-score
10,CCCGTCGA,-0.0775 E-score
11,AGTGAGCG,-0.0297 E-score
12,AAAAGCGT,-0.306 E-score
13,CTTTTGTC,-0.233 E-score
14,AGAATTAA,-0.291 E-score
15,ATGTTCTA,-0.0275 E-score
16,ACAGGCCA,-0.161 E-score
17,AGTTCGTA,-0.192 E-score
18,AGGCGATA,0.357 E-score
19,AAGACTAC,-0.14 E-score
20,GTTCTTCA,-0.121 E-score
21,AGTTCATA,-0.0345 E-score
22,AGCACACC,0.0833 E-score

row,Sequence,binding signal
1,GCCAGCGC,-0.267 E-score
2,AAAGGTGT,0.129 E-score
3,CTGTTGGA,-0.103 E-score
4,AAAGGTCG,-0.274 E-score
5,TGCACCCA,0.04 E-score
6,CTCCTCAA,-0.131 E-score
7,AACACTCA,0.0752 E-score
8,CCCAGAGG,-0.102 E-score
9,CCCCACTA,0.0174 E-score
10,AAGGCCTA,-0.233 E-score
11,AGACGGAC,-0.143 E-score
12,CTCCGGTA,0.244 E-score
13,CCTAGTTA,-0.17 E-score
14,AAGTGTCC,-0.0725 E-score
15,CTAGCCCC,0.111 E-score
16,ATAAGCAC,-0.154 E-score
17,ACTACACA,-0.125 E-score
18,CTTGGCAC,-0.346 E-score
19,CCCTGCAA,0.0559 E-score
20,CATACCAG,0.171 E-score
21,AGACGTAG,-0.0694 E-score
